Data published in PubChem BioAssay AID1963448 (Molecular Pharmacology Branch, DTP, NCI, 2024).
Certain results were filed several times, with different values. Only these are listed. There may be further records. Values given together repeat one measurement (runs, samples, wells, individuals or studies). Marks such as [2022-09] give the month of the run. Signs of the kind (2×) say how often a value occurs here.

System: 616215-338-R-J1-PDC complex spheroid growth, % test/control
Experiment: Anticancer human tumor 616215-338-R-J1-PDC patient-derived colon adenocarcinoma cell line growth inhibition [Asc]
Conditions: for viability, T/C: stronger effect = lower value; for IC50: compound alone
Protocol: Multicellular complex tumor spheroid response to apoptosis pathway targeting inhibitors Alrizomadlin, Pelcitoclax, and Dasminapant in combination with a variety of drugs and investigational agents in selected tumor cell lines
The MDM2 inhibitor alrizomadlin, the Bcl-2/Bcl-xL inhibitor pelcitoclax, and the IAPs inhibitor dasminapant were evaluated both individually and in combination with standard of care and investigational anticancer small molecules within a complex spheroid model of solid tumors. . Complex spheroids include a stromal component modeled by human endothelial cells (HUVEC) and fibroblasts modeled by human mesenchymal stem cells (MSCs). The concentration ranges selected for each drug and investigational agent were based upon clinically achievable concentrations if the clinical Cmax of the agent was known.
Compounds. The drugs and investigational agents: alrizomadlin (APG-115; NSC831270), pelcitoclax (APG-1252; NSC835773), dasminapant (APG-1387;NSC834197), TAK-243 (NSC785004), copanlisib (NSC809693), olaparib (NSC753686), talazoparib (NSC767125), cobimetinib (NSC 768068), eltanexor (KPT-8602, NSC 794443), abemaciclib (NSC 768073), sotorasib (NSC818433), adagrasib (NSC 831453), MRTX-1133 (NSC 836407), Iadademestat (ORY1001, NSC 806812), and RMC-4630 (NSC839698), were obtained from the NCI Developmental Therapeutics Program Chemical Repository. The FDA-approved anticancer drug set is available from the Developmental Therapeutics Program at https://dtp.cancer.gov/organization/dscb/obtaining/available plates.htm. […] The stock solutions were prepared in dimethyl sulfoxide (DMSO, Sigma-Aldrich, St. Louis, MO, cat. D2650) at 800-fold the tested concentration and stored at -70 degrees C prior to their use. All drugs and investigational agents were tested over a range starting from a high concentration at or near the clinical Cmax and decreasing in half-log increments. If the clinical Cmax for an agent had not been determined, the highest concentration tested was 10 microM.
The patient-derived cancer (PDC) cell lines include five colon adenocarcinomas: 186277-243-T-J2-PDC, 616215-338-R-J1-PDC, 439559-082-T-J2-PDC, 463943-066-T-J2-PDC, and 519858-162-T-J1-PDC; three pancreatic carcinomas: 323965-272-R-J2-PDC, 521955-158-R6-J3-PDC, and 521955-158-R2-J5-PDC; two uterine sarcomas: 327498-152-R-J2-PDC and 993429-296-R-J1-PDC; two rhabdomyosarcomas: 755483-174-R-J1-PDC and 772245-204-R-J1-PDC; two soft tissue sarcomas: 126254-015-R-J1-PDC and 494315-158-R-J1-PDC; two malignant fibrous histiocytomas: 317291-083-R-J1-PDC and 596521-263-R-J1-PDC; two breast carcinomas: 171881-019-R-J1-PDC and 885512-296-R-J2-PDC; and one ovarian carcinoma: 6556581-035-R-J-PDC were obtained from the NCI PDMR, (https://pdmr.cancer.gov). The established cell lines HSSY-2 synovial sarcoma (RRID:CVCL 8719), SYO-1 synovial sarcoma (RRID:CVCL_7146), MPNST malignant peripheral neural sheath tumor were obtained from the Sloan Kettering Institute. The following established cell lines were purchased from the American Type Culture Collection (ATCC, Manassas, VA), Sor the received from the NCI repository:, PANC-1 pancreatic carcinoma (CRL-1469, RRID:CVCL_0480), OVCAR-5 ovarian carcinoma (RRID:CVCL_1628), OVCAR-8 ovarian carcinoma (RRID:CVCL_1629), , MCF-7 breast carcinoma (CRL-12584, RRID:CVCL_0031), MDA-MB-231 breast carcinoma (CRL-12532, RRID:CVCL_0062), NCI-H1876 small cell lung carcinoma (CRL-5902, RRID:CVCL_1503), NCI-H510A small cell lung carcinoma (HTB-184, RRID:CVCL_1565), NCI-H1417 (CRL-5869, RRID:CVCL_1469), and NCI-H196 small cell lung carcinoma (CRL-5823, RRID:CVCL_1509). Dr. Peter Houghton (Greehey Children's Cancer Research Institute, University of Texas Health Science Center, San Antonio, TX) provided Rh-18 rhabdomyosarcoma (RRID:CVCL_1659). Pooled donor human umbilical vein endothelial cells (HUVEC, Lonza, cat. CC-2519) and human mesenchymal stem cells (hMSC, Lonza, cat. PT-2501) were purchased from Lonza (Walkersville, MD).
Cell Culture. […]
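Further: spheroids exposed to agents for seven days before readout.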
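Wherever viability, T/C is given: 100% = DMSO vehicle control viability.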

In the case of CCN1C(C(=O)NC23CCC(C(=O)O)(CC2)CC3)C(c2cccc(Cl)c2F)C2(C(=O)Nc3cc(Cl)ccc32)C12CCCCC2 (configuration not stated), the viability, T/C (compound alone 0.0949 µM) is reported as 98.5, 93.8, 90.9, 97.2, 90.5, 83.8, 92.7, 91.5, 95.3, 95.1, 93.4, 86.5, 80.8, 99.2% [2022-10] and 62.1% [2022-11], the viability, T/C (compound alone 0.3 µM) is reported as 81.2, 68.5, 67.3, 62.5, 65.9 (2×), 65.2, 66.8, 65.5, 61.4, 64.2, 61.9, 55.4, 59% [2022-10] and 42.3% [2022-11] and the viability, T/C (compound alone 0.949 µM) is reported as 70.7, 66.5, 59.5, 62.3, 62.2, 53.7, 61.1, 59.9, 58.1, 65.9, 79.1, 60.8, 69.4, 72.4% [2022-10] and 64.1% [2022-11]. The viability, T/C (compound alone 3 µM) was 56, 49.3, 47.2, 46.9, 49, 42.8, 47.5, 49.2, 49.5, 47.8, 60.3, 41.5, 51.3, 67% [2022-10] and 42.5% [2022-11] and the IC50 (run of 10/11/2022) was 2.64 µM, > 3 µM, 1.25 µM, 2.35 µM, 2.32 µM, 1.45 µM.

For CNC(C)C(=O)NC1CN(S(=O)(=O)c2cccc(S(=O)(=O)N3CCC4CCC(C(=O)NC(c5ccccc5)c5ccccc5)N4C(=O)C(NC(=O)C(C)NC)C3)c2)CCC2CCC(C(=O)NC(c3ccccc3)c3ccccc3)N2C1=O (configuration not stated), the viability, T/C (compound alone 0.00316 µM) was 98.5%, 108% [2022-10] and 9.37, 107, 108, 109, 115, 99, 106% [2022-11], the viability, T/C (compound alone 0.0316 µM) was 100%, 93.5% [2022-10] and 103, 114, 113, 104, 89, 84.2, 97.8% [2022-11] and the IC50 (run of 11/15/2022) was < 3.16 nM and > 1 µM.

For NC(=O)C(=Cn1cnc(-c2cc(C(F)(F)F)cc(C(F)(F)F)c2)n1)c1cncnc1, the IC50 was > 300 nM [2022-10] and 0.949 nM [2022-11].

With C=C(F)C(=O)N1CCN(c2nc(OCC3CCCN3C)nc3c2CCN(c2cccc4cccc(Cl)c24)C3)CC1CC#N (configuration not stated) the IC50 was 5.7 µM, 5.51 µM [2022-10] and 545 nM [2022-11] and the viability, T/C (compound alone 3.16 µM) was 102%, 97.7% [2022-10] and 1.04% [2022-11].

With C#Cc1c(F)ccc2cc(O)cc(-c3ncc4c(N5CC6CCC(C5)N6)nc(OCC56CCCN5CC(F)C6)nc4c3F)c12 (configuration not stated) the viability, T/C (compound alone 10 µM) was 87.1%, 82% [2022-10] and 7.74% [2022-11].
